Test results published in a collection of fitness landscapes (doi:10.1016/j.celrep.2020.107928).
Whole data set: some 81,000 sequences, median “one-hybrid fitness for binding NBS DNA” near -0.1, cut for the highest 2% near 0.36. The list shows a part of the results.

B1: Caulobacter ParB omega fusion; a variant is named by its letters at X, in order, B8GW30 (parent)
chain: MESVVVGEPGMSEGRRGLGRGLSALLGEVDAAPAQAPGEQLGGSREAPIEILQRNPDQPRRTFREEDLEDLSNSIREKGVLQPILVRPSPDTAGEYQIVAGERAWRAAQRAGLKTVPIMVRELDDLAVLEIGIIENVQRADLNVLEEALSYKVLMEKFERTQENIAQTIGKSXSHVANXMRLLXLPDEVQSYLVSGELTAXHARAIAAAADPVALAKQIIEGGLSVRETEALARKAPNLSAGKSKGGRPPRVKDTDTQALESDLSSVLGLDVSIDHRGSTGTLTITYATLEQLDDLCNRLTRGI

Variants of: B1
Test: one-hybrid fitness for binding NBS DNA (the Noc-binding site; scaled: cognate 1, non-cognate 0); higher = stronger binding
Settings: with NBS DNA site
Method in brief: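 Fitness is the rescaled log change in variant-to-wild-type read ratio, measured by Illumina sequencing of plasmids before and after bacterial one-hybrid selection. The scale puts cognate at 1 and non-cognate at 0. Selection of Caulobacter ParB libraries, four specificity codons randomised, took place in E. coli USO with a HIS3 reporter, site 19 bp from the promoter, over 48 hours at 37°C on M9-minus-histidine with 0.1 mM IPTG and 5 mM 3-AT.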

one-hybrid fitness for binding NBS DNA, 0.248:
VHRR

one-hybrid fitness for binding NBS DNA, 0.543:
QTWT

one-hybrid fitness for binding NBS DNA, 0.229:
MNKR

one-hybrid fitness for binding NBS DNA, 0.351:
TRQR

one-hybrid fitness for binding NBS DNA, ≤ 0.2:
LSLC
ATRP
PTPD
QHIH
SSGK
GVFP
RCLI
DDGT
SDSF
WRQC
CANE
NTRF
LKRV
GRFI
QLDF
SCEC
NNTG
ACTN
NGED
RPDA
LVIW
KDHC
SLHC
KDDS
HSMI
AVAL
TVLQ
PDLS
PPVG
DRHA
GATE
LLAC
FKCS
TICV
VPYR
QDKI
MDSS
PMKY
MLNW
PGHW
DNRI
QRID
CMSR
TNKL
VSPR
MHWS
YSLL
TCYH
IESG
LTTP
TCLI
TGPL
ALME
LMET
HACT
HKAG
KLTL
VTPS
DGRY
TILV
VHIG
QYSM
SKPI
YDPM
TRRG
AIYV
GSHP
ESVM
YREW
ECMS
DKAR
WGRI
RMNI
MKSR
RVWL
MHEG
ALNY
SHWC
INCG
PSSC
RCQK
RWCP
EVMV
NPIT
GNWR
LESV
LQYM
KHLC
KKPY
REHY
NSTA

one-hybrid fitness for binding NBS DNA, 0.389:
QQIT

one-hybrid fitness for binding NBS DNA, 0.425:
KKNT

one-hybrid fitness for binding NBS DNA, 0.271:
RHRY
